Holding throughout (test): glycan array binding signal (z-score within array); higher = stronger binding
Common to all, as to conditions: glycan notation: IUPAC condensed, linker removed

Assay [1] addresses Neu5Ac9Ac(a2-3)Gal(b1-3)GlcNAc. The essentials:
(§1)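 Glycan array data came from 3228 arrays in the Consortium for Functional Glycomics database, and only arrays with an available protein sequence were kept. Glycan names were put into IUPAC-condensed notation, and columns mapping to the same glycan were averaged. The binding signal is a within-array Z-score, averaged across arrays of one protein sequence run at different concentrations or buffers and across linkers. A negative Z-score can be read as non-binding.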

Assay [2] deals with Neu5Ac9Ac(a2-3)Gal(b1-4)GlcNAc. The essentials:
as §1

In assay [3] the target is Neu5Ac9Ac(a2-6)Gal(b1-4)GlcNAc. The essentials: as §1
In assay [4] the target is Neu5Gc(a2-3)Gal(b1-3)GlcNAc. The essentials:
as §1

Assay [5] has as its target Neu5Gc(a2-3)Gal(b1-3)[Fuc(a1-4)]GlcNAc. The essentials:
as §1

Assay [6] addresses Neu5Gc(a2-3)Gal(b1-4)Glc. The essentials:
as §1

In assay [7] the target is Neu5Gc(a2-3)Gal(b1-4)GlcNAc. The essentials:
as §1

Assay [8] addresses Neu5Gc(a2-3)Gal(b1-4)GlcNAc(b1-3)Gal(b1-4)GlcNAc(b1-2)Man(a1-3)[Neu5Gc(a2-3)Gal(b1-4)GlcNAc(b1-3)Gal(b1-4)GlcNAc(b1-2)Man(a1-6)]Man(b1-4)GlcNAc(b1-4)GlcNAc. The essentials: as §1
Assay [9] has as its target Neu5Gc(a2-3)Gal(b1-4)[Fuc(a1-3)]GlcNAc. The essentials: as §1
For assay [10], the target named is Neu5Gc(a2-6)Gal(b1-4)GlcNAc. The essentials: as §1
Assay [11] has as its target Neu5Gc(a2-6)GalNAc. The essentials: as §1
The target in assay [12] is Neu5Gc(a2-8)Neu5Ac(a2-3)Gal(b1-4)GlcNAc. The essentials:
as §1

Assay [13] deals with Neu5Gc(a2-8)Neu5Gc(a2-3)Gal(b1-4)GlcNAc. The essentials: as §1
In assay [14] the target is Neu5Gc(a2-8)Neu5Gc(a2-3)Gal(b1-4)GlcNAc(b1-3)Gal(b1-4)GlcNAc. The essentials: as §1
Assay [15] has as its target Neu5Gc(a2-8)Neu5Gc(a2-6)Gal(b1-4)GlcNAc. The essentials:
as §1

In assay [16] the target is Neu5Gc(b2-6)Gal(b1-4)GlcNAc. The essentials: as §1

Some of the results follow.

B1: AMA (Arum maculatun) (protein)
chain: MAKLLLLLLLPAIVGLAVPRSAAAVGSNYMLSGETLNTDGRLTNGELTLIMQVDCNLVLYHGGWQSNTANNGRDCKLTLTDFGELVIKSGTGSTVWSSGSKQSMKGNYAAVVHPEGRLVIYGPSVFKINPSGAGLNGLPLRNIPLTNNMLFSGQVLYGDGTLSARNHKLVMQGDCNMVLYGGKYGWQSNTHGNGKYCFAMLTHKGELVIRDDDFKSVWSSKSSSKQGDYVFILQDDSLAIIYGPAVFSTGSKKMISMVTN
With B1, the “glycan array binding signal (z-score)” value was -0.217 in assay [1]; -0.164 in assay [2]; -0.224 in assay [3]; 1.46 in assay [4]; -0.23 in [5]; -0.219 in assay [6]. Further, the “glycan array binding signal (z-score)” value in assay [7] was -0.222; in [8], -0.123; in assay [9], -0.216; in assay [10] it was -0.209; in [11], -0.217; in assay [12], -0.222. Besides, the “glycan array binding signal (z-score)” value is -0.22 in [13], -0.215 in assay [14], -0.211 in assay [15] and -0.21 in [16].

The values are drawn from the supplement of paper PMC8728848.
